Test results: publication PMC4336329 (PLoS ONE, 2015)
Screen size: about 310,000 compounds; about 2,200 (0.71%) showed an effect of 50% or more. Effects have a minus sign here. Some of the results follow.

Target: human ether-à-go-go-related gene (hERG) potassium channel (human, UniProt Q12809)
Test: primary screen, population patch clamp on CHO cells stably expressing hERG

Sequence of human ether-à-go-go-related gene (hERG) potassium channel (Q12809 whole entry, looked up): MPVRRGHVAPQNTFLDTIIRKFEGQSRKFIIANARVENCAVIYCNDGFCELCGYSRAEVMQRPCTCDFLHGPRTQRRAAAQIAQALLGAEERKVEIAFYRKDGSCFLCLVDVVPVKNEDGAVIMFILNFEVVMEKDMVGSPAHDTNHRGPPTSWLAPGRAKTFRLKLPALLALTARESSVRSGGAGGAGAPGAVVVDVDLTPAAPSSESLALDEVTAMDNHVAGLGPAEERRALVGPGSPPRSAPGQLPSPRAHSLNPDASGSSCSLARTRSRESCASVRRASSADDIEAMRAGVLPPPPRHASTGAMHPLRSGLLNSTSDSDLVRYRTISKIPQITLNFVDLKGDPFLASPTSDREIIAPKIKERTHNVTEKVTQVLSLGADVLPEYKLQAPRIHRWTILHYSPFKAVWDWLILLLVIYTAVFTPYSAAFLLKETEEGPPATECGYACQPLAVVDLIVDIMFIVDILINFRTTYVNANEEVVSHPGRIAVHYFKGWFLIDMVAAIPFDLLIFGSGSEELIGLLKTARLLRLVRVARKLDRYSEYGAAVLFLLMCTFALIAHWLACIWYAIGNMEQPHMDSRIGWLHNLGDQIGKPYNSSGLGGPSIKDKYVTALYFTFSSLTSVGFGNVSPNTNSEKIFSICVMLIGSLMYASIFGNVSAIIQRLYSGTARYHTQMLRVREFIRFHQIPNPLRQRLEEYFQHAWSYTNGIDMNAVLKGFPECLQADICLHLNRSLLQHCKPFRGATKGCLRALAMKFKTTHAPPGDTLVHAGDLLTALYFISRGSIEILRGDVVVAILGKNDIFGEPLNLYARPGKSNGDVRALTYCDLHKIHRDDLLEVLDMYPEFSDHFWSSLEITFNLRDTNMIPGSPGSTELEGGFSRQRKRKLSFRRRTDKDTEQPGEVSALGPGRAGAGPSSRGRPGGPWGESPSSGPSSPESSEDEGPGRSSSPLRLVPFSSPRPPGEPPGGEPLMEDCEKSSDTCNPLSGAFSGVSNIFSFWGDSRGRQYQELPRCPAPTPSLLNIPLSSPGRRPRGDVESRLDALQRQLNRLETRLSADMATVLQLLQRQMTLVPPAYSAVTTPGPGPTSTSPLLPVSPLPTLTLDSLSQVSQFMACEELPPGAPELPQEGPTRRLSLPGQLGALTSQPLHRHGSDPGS

| Compound | hERG current change (%, negative = inhibition) at 1uM [%] |
| --- | --- |
| CCN(CC)S(=O)(=O)N1CCN(S(=O)(=O)N2CCOCC2)CC1 | 14.3 |
| CCCc1cc(=O)oc2c(C)c(OCC(=O)NCCN3CCOCC3)ccc12 | -6.02 |
| COc1cccc(CN2CCN(CC(=O)NCCc3ccccc3)CC2)c1 | 15.3 |
| Cc1ccc(-c2nc3ccccc3[nH]2)cc1NC(=O)c1ccc2c(c1)OCO2 | -12.5 |
| Cc1ccc(S(=O)(=O)N(CC(=O)Nc2cccc(C(F)(F)F)c2)C(=O)N2CCN(C)CC2)cc1 | 6.17 |
| CSCCC(NC(=O)c1ccccc1)C(=O)OCC(=O)N(C)CCC#N (stereo not shown) | 14.9 |
| CCCOP(=O)(OCCC)c1nc(-c2ccccc2)oc1NCc1ccccc1 | 12.8 |
| C[C@H](CO)NC(=O)[C@@H]1C[C@H]1[C@@H](NP(=O)(c1ccccc1)c1ccccc1)c1ccccc1 | 9.18 |
| Cc1ccc([N+](=O)[O-])cc1N(CC(=O)NCC1CCCO1)S(C)(=O)=O (stereo not shown) | 11 |
| Cn1cccc1C(=O)NC(=O)COC(=O)Cc1coc2ccc3ccccc3c12 | 13 |
| O=C(Nc1cccc(C(F)(F)F)c1)Nc1ccc(N2CCCC2)c(S(=O)(=O)Nc2ccccc2Cl)c1 | 19.7 |
| Cc1coc2c1c(C)cc1oc(=O)c(CC(=O)NCC(=O)N[C@H](C(=O)O)C(C)C)c(C)c12 | 9.35 |
| Cc1ccc(Cl)cc1N1CCN(C(=O)Cc2c(C(=O)O)[nH]c3ccccc23)CC1 | -3.66 |
| Cn1cc(CCNC(=O)C2CCC(=O)N(CCc3ccc(Cl)cc3)C2)cn1 (stereo not shown) | 6.82 |
| Cc1sc2ncnc(Nc3ccc(N4CCOCC4)cc3)c2c1-c1ccccc1 | 17 |
| Cc1cccc(CNC(=O)C2CCC(=O)N(C3CC3)C2)c1 (stereo not shown) | 7.46 |
| CCN(CC)c1ccc2c(O)cc(=O)oc2c1 | 0.515 |
| N/C(=N\OC(=O)c1cccc([N+](=O)[O-])c1)c1cccnc1 | 8.63 |
| COc1ccc2nc3cc(Cl)ccc3c(Nc3cc(C(C)C)c(O)cc3C)c2c1 | 8.02 |
| CCOC(=O)N1CCN(C(=O)c2ccc3c(=O)n4c(nc3c2)CCCCC4)CC1 | 5.96 |
| COc1ccc(OCc2nc(-c3ccc(F)c(F)c3)cs2)cc1 | 17.4 |
| O=C(CSc1nnc(CNC(=O)c2ccccc2F)o1)Nc1cccc(C(F)(F)F)c1 | 16 |

| Compound | hERG current change (%, negative = inhibition) at 1uM [%] |
| --- | --- |
| O=C(CCc1nc(-c2ccccc2)no1)Nc1cccnc1 | 11.4 |
| Cc1ccc(/C=C2/C(=N)N3N=C(CC(=O)N4CCCC4)SC3=NC2=O)o1 | 9.17 |
| N#Cc1c(-c2ccccc2)nc2n1CCS2 | 10.6 |
| CC(C)C[C@H](NC(=O)N1CCn2c1nc1ccccc12)C(=O)N[C@H](Cc1ccccc1)C(=O)O | 14 |
| Cc1cccn2c(=O)c3c(nc12)N1CCc2ccccc2C1C1(C3)C(=O)NC(=O)N(C)C1=O (stereo not shown) | 9.95 |
| Cc1c(Cl)c([N+](=O)[O-])nn1CCCC(=O)Nc1cccc(Cl)c1 | -15 |
| CC(C)(C)C(=O)N1CCN(C(=O)c2ccco2)CC1 | 15.4 |
| CSCCC(NC(=O)c1ccc(C(C)(C)C)cc1)C(=O)O (stereo not shown) | 0.461 |
| CC(NS(=O)(=O)c1ccccc1)C(c1cccs1)N1CCN(c2ccccc2)CC1 (stereo not shown) | 9.03 |
| Cc1nc2c(-c3ccccc3)c(C)nn2c(C)c1CCC(=O)NC(C)CCc1ccco1 (stereo not shown) | -3.77 |
| COc1ccc(COC(=O)C2CC(=O)N(Cc3ccccc3)C2)cc1 (stereo not shown) | -0.745 |
| Cc1cccc(Cc2ncc(C(F)(F)F)cc2Cl)c1 | 8.31 |
| N#C/C(=C\c1cn(-c2ccccc2)nc1-c1cc2ccccc2o1)c1nc2ccccc2[nH]1 | 8.78 |
| COc1ccc(C(=O)N2CCCC2=O)cc1 | 16.3 |
| CCOc1ccc2nc(NC(=O)c3ccccn3)sc2c1 | 8.87 |
| O=C(Nc1ccccc1)N1CC=C(c2ccc(F)cc2)CC1 | 7.84 |
| CC(C)(C)c1ccc(C(=O)N2CCC(C(=O)NCC3CCCO3)CC2)cc1 (stereo not shown) | -4.85 |
| Cc1ccc2cc(CN(CC(C)C)S(=O)(=O)c3cccc4nonc34)c(=O)[nH]c2c1 | 7.16 |
| O=C(NC12CC3CC(CC(C3)C1)C2)C1CC(=O)N(c2ccc(Br)cc2)C1 (stereo not shown) | 8.59 |
| COc1ccc(NS(=O)(=O)c2ccc(NC(=O)C3CCCO3)cc2)cc1 (stereo not shown) | 3.5 |
| CCOc1cc(C(=O)O)ccc1OCCOc1ccccc1 | 13.5 |
